Whole data set: some 13,000 compounds, median “IFI” near 4, cut for the highest 2% near 17. This is one part of the list.
assay: GSK_TCMDC: Inhibition Frequency Index (IFI). The number of non-kinase HTS assays where a compound showed > 50 % inhibition, expressed as a percentage of the number of such assays in which the compound was tested (-0 is zero); type: functional

Structure (SMILES)	IFI
COc1ccc(-c2ccc(NC(=O)c3cccc(Cl)c3)cc2)cc1CN1CCN(C)CC1	7.84%
CCCn1c(=N)c(C(=O)NCCc2ccccc2)cc2c(=O)n3cccc(C)c3nc21	3.39%
CC(=O)Nc1ccc(CN2CCC(CNC(=O)c3cc(-c4cccc(Cl)c4)cs3)C2)cc1 (stereo not given)	8%
O=C(NCCN1CCC(NC(=O)c2ccc(-c3ccccn3)s2)CC1)c1ccc(Cl)c(Cl)c1	2.74%
COc1cccc(C2CCN(CCN3CCC(NC(=O)c4ccc(-c5ccc(C(F)(F)F)cc5)cc4)CC3)CC2)c1	7.34%
COC(=O)C(=C(C)C)N1C(=O)[C@@H](NC(=O)OCc2ccccc2)[C@H]1SS[C@@H]1[C@H](NC(=O)OCc2ccccc2)C(=O)N1C(C(=O)OC)=C(C)C	4.41%
COc1ccc(S(=O)(=O)NCCCC2CCN(CCCCCNC(=O)C=Cc3ccc(Cl)c(Cl)c3)CC2)cc1	8.7%
O=C(Nc1cccc(C(F)(F)F)c1)Nc1cc(F)c(F)cc1Cl	11.6%
O=c1ccc(-c2nc3cc(Cl)c(Cl)cc3n2Cc2ccc(Cl)cc2Cl)c[nH]1	3.33%
CCCCCCn1c(Sc2ccc(C#N)c([N+](=O)[O-])c2)nnc1-c1ccc(OC)cc1	7.09%
CC1Cc2ccccc2N1CC(=O)Nc1cc(C(F)(F)F)ccc1-n1cncn1 (stereo not given)	5.66%
O=C(Nc1cccc(-c2ccc(-c3nc4ccccc4[nH]3)cc2)c1)Nc1ccc2c(c1)OCO2	4.04%
COc1ccc(NC(=O)Nc2cc(C)nc3cccnc23)cc1Cn1ccnc1	1.37%
Cc1cc(F)ccc1Nc1nc(N(C)c2ccccc2)c2cc(OCCCN(C)C)ccc2n1	10.8%
CC(C)CCNC(=O)[C@@H]1[C@H]2C(=O)N(C3CCCCC3)C(=O)[C@H]2[C@H]2C=C[C@@H]3C(c4ccc(C(C)(C)C)cc4)=NO[C@@H]3N21	1.47%
O=C(NC1CCN(Cc2ccc(O)cc2)CC1)c1ccc(Cl)c(Cl)c1	3.45%
c1ccc(Oc2cccc(Nc3ccnc4ccccc34)c2)cc1	8.03%
CN(C)CCN(C)Cc1ccc(-c2cccc(-c3nc4ccccc4[nH]3)c2)cc1	2.91%
O=C(Nc1ccc(C(F)(F)F)cc1)c1ccc(S(=O)(=O)NC2CCCN(CC3CCCCC3)C2)cc1 (stereo not given)	4.82%
CC1(C)[C@H]2CC[C@@H](CNc3nc(NCCc4c[nH]cn4)nc(Nc4ccc5c(c4)OCO5)n3)[C@@H]1C2	1.49%
COc1cc(SC)c(Br)cc1-c1nc2ccncc2[nH]1	2.78%
CC(C)N1CCCN(C(=O)C2CCN(c3ccc(C(=O)N4CCCC4)cn3)CC2)CC1	-0%
OCCN1CCN(Cc2ccc(-c3cccc(-c4nc5cc(F)ccc5[nH]4)c3)cc2)CC1	3.92%
O=C(c1ccccc1)N(Cc1ccccc1-c1ccc(CNCCc2ccccc2)cc1)C1CCN(Cc2ccccc2)CC1	11%
Cc1cccc(NC(=O)c2ccc(C(=O)NC3CCN(CC4CCCCC4)C3)cc2)c1 (stereo not given)	1.8%
CCOC(=O)c1[nH]c2ccc(F)cc2c1NC(=O)CN1CCN(c2cccc(C(F)(F)F)c2)CC1	0.75%
Cc1cc(N[C@@H](CC(C)C)C(=O)NC2CCCC2)nc(NCC2CCCCC2)n1	4.65%
C=CCNS(=O)(=O)c1ccc(NC(=O)C(C)Oc2ccc([N+](=O)[O-])cc2)cc1 (stereo not given)	14.8%

Structure (SMILES)	IFI
Cc1cccc2nc(-c3ccc(-c4cccc(CNCCCNS(C)(=O)=O)c4)s3)[nH]c12	3.96%
CCCCN1CCN(c2cc(NS(=O)(=O)c3ccc(C(=O)Nc4ccc(C(F)(F)F)cc4)cc3)ccc2OC)CC1	3.97%
OCCN1CCN(Cc2ccc(-c3cccc(-c4nc5cc(C(F)(F)F)ccc5[nH]4)c3)cc2)CC1	6.86%
COc1ccc2nccc(NCC3(O)CCC(NCc4cc5c(cn4)OCCO5)CC3)c2n1 (stereo not given)	0%
CC(C)C[C@@H](/C=N/NC(N)=O)NC(=O)[C@H](CC(C)C)NC(=O)[C@H](CC(C)C)NC(=O)OCc1ccccc1	10.9%
Cc1cc2ncn(-c3nccc(NCc4cccnc4)n3)c2cc1C	1.55%
CC(C)CCn1c(Sc2ccc(C#N)c([N+](=O)[O-])c2)nnc1-c1ccccc1Cl	8.45%
c1ccc2c(C3CCN(CCCCOc4ccc5c(c4)CCN(CC4CC4)CC5)CC3)c[nH]c2c1	11%
COc1ccc2nccc([C@@H](O)CN3CCC(NC(=O)c4cccc(-c5cc(C)no5)c4)CC3)c2c1	2.19%
Cc1ccc(-c2nc3cc(NC(=O)c4ccc([N+](=O)[O-])o4)ccc3o2)cc1Cl	0.72%
Clc1ncnc2scc(-c3ccc(Br)cc3)c12	3.6%
CN1CCN(c2ccc(Nc3ncc(C#N)c(Nc4ccccc4C(N)=O)n3)cc2)CC1	14.8%
O=C(Nc1cc(F)cc(F)c1)NC1CCN(CCCCCNC(=O)C2CC2c2ccc(Cl)c(Cl)c2)CC1 (stereo not given)	11.5%
O=C(CN1CCN(C(=O)c2ccco2)CC1)Nc1ccccc1Br	-0%
O=C(Nc1ccc(OC(F)(F)F)cc1)NC1CCN(c2ccnc3ccccc23)C1 (stereo not given)	7.81%
CC(=O)Oc1c(C2CCN(CCCCNC(=O)c3ccc(NC(=O)c4ccc(Cl)cc4)cc3)CC2)ccc2c1CCCC2	4.27%
Cc1cccc2nc(-c3ccc(-c4cccc(NC(=O)NCc5cccc(F)c5)c4)cc3)[nH]c12	5%
CN(CCC1CCN(C(=O)/C=C/c2ccc(Cl)c(Cl)c2)CC1)C1CCC(c2c[nH]c3ccccc23)CC1 (stereo not given)	9.63%
CCN(CC)CCCNCc1ccc(-c2ccc(C(F)(F)F)cc2)cc1	7.53%
Cc1cccc2nc(-c3ccc(-c4ccc(NC(=O)Nc5ccc(F)c(F)c5F)cc4)s3)[nH]c12	7.92%
O=C(Cn1cc(C=C2SC(=NC3CCCC3)N(C3CCCC3)C2=O)c2ccccc21)N1CCCC1	4.76%
CCc1ccc(NC(=O)c2ccc(CN3CCCN(Cc4cccc(O)c4)CC3)cc2)cc1	14.5%
Cc1[nH]c(C)c(-c2ccc(-c3ccccc3)nc2)c(=O)c1Br	-0%
CCN(CCCN1CCCCC1)c1cc(C)nc(Nc2cccc(C(F)(F)F)c2C)n1	7.5%
O=C(Nc1cccc(-c2ccc(-c3nc4cc(C(F)(F)F)ccc4[nH]3)s2)c1)c1c[nH]cn1	3.7%
Cc1cc(OCC2CCN(c3ncc(C(=O)NC4CC4)cc3Cl)CC2)ccc1F	9.8%
O=C(Nc1ccccc1Cl)c1cc2ccccc2cc1O	4.44%
